The values that follow come from article PMC4336329 (PLoS ONE, 2015).

SMILES strings stand for the structures. The whole screen tested about 310,000 compounds, of which about 14,000 (4.5%) showed an effect of 50% or more. Effects have a minus sign here. The list shows a part of the results.
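Further: peak tail current of the secondary pulse compared with the same well before compound.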

This assay deals with human ether-à-go-go-related gene (hERG) potassium channel (human, UniProt Q12809). The assay can be described thus: primary screen, population patch clamp on CHO cells stably expressing hERG.
Sequence of human ether-à-go-go-related gene (hERG) potassium channel (Q12809 whole entry, looked up): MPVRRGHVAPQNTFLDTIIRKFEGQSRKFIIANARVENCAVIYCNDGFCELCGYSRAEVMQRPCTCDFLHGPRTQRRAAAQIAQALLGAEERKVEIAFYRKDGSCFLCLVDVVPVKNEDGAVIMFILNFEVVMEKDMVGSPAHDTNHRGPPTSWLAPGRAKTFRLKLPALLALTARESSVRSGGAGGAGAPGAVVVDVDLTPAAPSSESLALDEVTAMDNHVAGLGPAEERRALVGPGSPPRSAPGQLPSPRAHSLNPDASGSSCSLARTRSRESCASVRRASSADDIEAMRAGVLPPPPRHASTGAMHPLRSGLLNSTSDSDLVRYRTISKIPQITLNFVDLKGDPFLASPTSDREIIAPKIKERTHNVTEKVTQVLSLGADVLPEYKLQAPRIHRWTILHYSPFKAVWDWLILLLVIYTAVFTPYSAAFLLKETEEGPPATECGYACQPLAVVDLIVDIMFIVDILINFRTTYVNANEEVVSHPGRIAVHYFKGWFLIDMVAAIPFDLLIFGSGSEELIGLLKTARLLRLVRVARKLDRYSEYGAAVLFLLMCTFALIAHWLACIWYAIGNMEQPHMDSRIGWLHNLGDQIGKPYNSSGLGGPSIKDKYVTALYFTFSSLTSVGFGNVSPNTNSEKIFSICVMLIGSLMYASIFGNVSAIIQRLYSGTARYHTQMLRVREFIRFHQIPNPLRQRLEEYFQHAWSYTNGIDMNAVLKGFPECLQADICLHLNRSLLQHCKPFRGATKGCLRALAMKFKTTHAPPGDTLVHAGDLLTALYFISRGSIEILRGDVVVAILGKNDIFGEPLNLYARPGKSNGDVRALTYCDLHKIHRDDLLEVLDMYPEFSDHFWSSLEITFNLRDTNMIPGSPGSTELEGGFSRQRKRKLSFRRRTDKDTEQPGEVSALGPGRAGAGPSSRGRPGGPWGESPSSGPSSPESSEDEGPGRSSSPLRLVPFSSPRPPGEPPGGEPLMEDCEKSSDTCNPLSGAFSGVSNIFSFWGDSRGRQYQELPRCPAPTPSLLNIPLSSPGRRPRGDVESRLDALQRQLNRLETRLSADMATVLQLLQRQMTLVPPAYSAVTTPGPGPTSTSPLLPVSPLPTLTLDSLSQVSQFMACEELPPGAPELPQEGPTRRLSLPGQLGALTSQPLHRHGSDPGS
Take `Cc1ccc(NC(=O)c2ccc(NCC3CCCO3)c([N+](=O)[O-])c2)cc1Cl` (stereo not drawn): the “hERG current change (%, negative = inhibition) at 10uM” value was 3.63%.
With `CCOC(=O)N1CCN(C(=O)CNC(=O)c2ccc(Br)o2)CC1`, the “hERG current change (%, negative = inhibition) at 10uM” value was 11.7%.
Consider `CCCN(CC(=O)Nc1ccccc1C)C(=O)COc1ccc2c(c1)CCC2`, for which the “hERG current change (%, negative = inhibition) at 10uM” value is 12.5%.
For `CCCCCc1cc(=O)oc2c(C(CCN3CCCC(C)C3)c3ccc(OC)cc3)c(OC)cc(OC)c12` (stereo not drawn) the value was -27.8%; for `Cc1cc(Cl)ccc1NC(=O)CSc1nnc(Cc2cccs2)n1Cc1ccco1`, -45.3%.
As for `COc1cccc(CNC(=O)CN2C(=O)COc3ccc(S(=O)(=O)N4CCCC4)cc32)c1`, the “hERG current change (%, negative = inhibition) at 10uM” value is -19.8%.
With `Cc1ccc(-n2cccc2C(=S)N=P(N(C)C)(N(C)C)N(C)C)cc1`, the “hERG current change (%, negative = inhibition) at 10uM” value is given as 6.86%.
The same measure for `CCOc1ccccc1Oc1c(C)oc2cc(OC(=O)N3CCOCC3)ccc2c1=O`: 4.41%.
For the compound `CC1CC(C)CN(C(=O)CCCn2c(=O)c3cccn3c3cccnc32)C1` (stereo not drawn), the “hERG current change (%, negative = inhibition) at 10uM” value is -11%.
The same measure for `COc1cc(OC)cc(C(C)=O)c1`: 18.6%.
The same measure for `O=C(NCc1ccco1)c1scc2c1OCCO2`: -1.28%; for `CCOC(=O)c1ccc(N2C(=O)CC(N3CCC(Nc4ccc(F)cc4)CC3)C2=O)cc1` (stereo not drawn): 8.31%; for `COc1ccc(CN(C)CC2CCCN(CCc3ccccc3C)C2)cc1O` (stereo not drawn): -53.8%.
With `O=C(COc1ccc(Cl)cc1Cl)N1CCCC1`, the “hERG current change (%, negative = inhibition) at 10uM” value is -1.44%.
`COc1cccc(NC(=O)CN(C)C(=O)COc2ccccc2Cc2ccccc2)c1`: the “hERG current change (%, negative = inhibition) at 10uM” value was -7.84%.
As to `Cc1c(CNCCC2=CCCCC2)c(C(=O)O)c(C)n1Cc1ccccc1`, the “hERG current change (%, negative = inhibition) at 10uM” value is on record as -13.3%.
Regarding `COc1ccc2c(c1OC)C(=O)N1c3cccc(Cl)c3C(=O)OC21` (stereo not drawn), the “hERG current change (%, negative = inhibition) at 10uM” value was -2.79%.
For `Cc1ccc2c(CSc3nnc(C4CC4)n3N)cc(=O)oc2c1C` the value was -7.55%.
The same measure for `CCn1nnnc1Oc1ccc(Cl)cc1`: 2.38%; for `COCC(=O)Nc1ccc(N2CCCC2)c(S(=O)(=O)Nc2ccccc2OC)c1`: -22.1%; for `CCn1c(=NC(=O)c2cccc(N3C(=O)CCC3=O)c2)sc2c(OC)ccc(OC)c21`: 12.5%.
The same measure for `Cl.Cn1c(=N)n(CC(O)c2ccccc2)c2ccccc21` (stereo not drawn): -26.3%; for `Cc1cccc(N2CCN(S(=O)(=O)c3c(C)nc4scc(C)n4c3=O)CC2)c1C`: -3.51%; for `CCOc1ccccc1N1CC(C(=O)Nc2ccccc2N2CCCC2)CC1=O` (stereo not drawn): 16.8%.
In the case of `Cc1ccc(CNC(=O)c2ccc3c(=O)[nH]c4c(C(=O)NCC5CCCO5)sc(=S)n4c3c2)cc1` (stereo not drawn), the “hERG current change (%, negative = inhibition) at 10uM” value is listed as -32%.
For the compound `COc1ccc(C(=O)N2CCNC(=O)C2)cc1S(=O)(=O)Nc1ccc(Br)cc1`, the “hERG current change (%, negative = inhibition) at 10uM” value was found to be 1.15%.
Take `C=C(CC1CC(O)[C@]2(C)OC3CC4OC5C[C@]6(C)O[C@]7(C)CCC8OC9C[C@]%10(C)OC%11C(C)=CC(=O)OC%11CC%10OC9C[C@@H](C)C8OC7CC6O[C@]5(C)C/C=C\C4OC3CC2O1)C(=O)O` (stereo partly drawn): the “hERG current change (%, negative = inhibition) at 10uM” value worked out at 0.53%.
For `COc1cc(NC(=S)N2CCCC(C)C2)c(OC)cc1Cl` (stereo not drawn) the value was 33.4%.
The same measure for `CCc1ccc(NS(=O)(=O)c2ccc3[nH]cc(C(=O)N(C)Cc4ccco4)c(=O)c3c2)cc1`: 0.0432%; for `Cl.Ic1ccc(N2CCN(Cc3c[nH]c4ncccc34)CC2)cc1`: -2.49%.
As for `O=C(Cn1cc(C(F)(F)F)ccc1=O)N/N=C/c1cccc(Cl)c1Cl`, the “hERG current change (%, negative = inhibition) at 10uM” value was -4.01%.
The same measure for `C=CCN(CC=C)c1nc2ccccc2nc1C(C#N)C(=O)OCCOC` (stereo not drawn): -29.8%; for `COc1ccc(NC(=S)N2CCC(c3ccc(C)cc3)C2)cc1` (stereo not drawn): -1.56%; for `COc1cccc(C(=O)NC(C)C(c2cccs2)N2CCN(C)CC2)c1` (stereo not drawn): -10.8%.
As for `Clc1cccc(-c2nnc(-c3ccno3)o2)c1`, the “hERG current change (%, negative = inhibition) at 10uM” value was determined as 1.4%.
For `CCOc1ccccc1NC(=O)NCc1ccccc1F` the value was 13.1%; for `C=CCn1c(SCC(=O)NC(=O)NCC(C)C)nnc1C1CCCCC1`, 2.18%.
For `COc1cccc(N2C(=O)C3C(C2=O)C3(c2ccccc2)c2ccccc2)c1` (stereo not drawn) the value was -3.19%; for `Cc1cc(NC(=O)CC23CC4CC(C2)CC(CC(=O)Nc2cc(C)on2)(C4)C3)no1`, 3.02%; for `CCOC(=O)N1CCC(NC(=O)c2ccc(NC(=O)C3CCCO3)cc2)CC1` (stereo not drawn), 0.264%.
For `CCC(C)(C)NC(=O)C(c1ccc(OC)cc1)N(Cc1ccco1)C(=O)CCC(=O)Nc1cc(C)on1` (stereo not drawn) the value was -2.21%; for `COc1ccc(Nc2nc(Cl)c(C=O)s2)cc1`, 17.1%; for `CC(C)=NOc1nc(N2CCOCC2)nc(N2CCOCC2)n1`, 8.33%.
As for `O=C(O)C1CCN(S(=O)(=O)c2cccc3nsnc23)CC1`, the “hERG current change (%, negative = inhibition) at 10uM” value is listed as 6.45%.
For `O=C(NN=C1CCCCC1)c1ccccc1-n1cccc1` the value was -5.82%; for `CC(=O)c1cccc(Nc2c([N+](=O)[O-])c(=O)oc3ccccc23)c1`, 12.6%; for `CC(NC(=O)Cc1ccccc1)c1ccccc1` (stereo not drawn), 3.47%.
Turning to `O=C(CSc1nnc(-c2cccs2)o1)NCc1ccco1`, the “hERG current change (%, negative = inhibition) at 10uM” value was -0.74%.
Regarding `CCOc1cccc(-c2nnc(SCC(=O)Nc3ccc(OC)c(OC)c3)n2N)c1`, the “hERG current change (%, negative = inhibition) at 10uM” value is -3.31%.
The same measure for `Cn1c(=O)c2c(nc(CN3CCN(c4ccccc4F)CC3)n2CCN2CCOCC2)n(C)c1=O`: -10.9%; for `CCOC(=O)CC1COc2ccccc2N1C(=O)c1ccc(F)cc1` (stereo not drawn): -3.15%; for `CCn1cc(/C=C(\NC(=O)c2ccc(OC)cc2)C(=O)N2CCOCC2)c2ccccc21`: -3.42%.
Regarding `COc1ccc(/C=C(/NC(=O)c2ccco2)C(=O)N2CCCCCC2)cc1OC`, the “hERG current change (%, negative = inhibition) at 10uM” value is given as -7.39%.
On to `CC1(C(=O)OCC(=O)Nc2nc(-c3ccc(F)c(F)c3)cs2)CC1(Cl)Cl` (stereo not drawn), for which the “hERG current change (%, negative = inhibition) at 10uM” value is reported as 2.47%.
